Experimental findings from PubChem BioAssay AID485344 (National Center for Advancing Translational Sciences (NCATS), 2010) are described below.

Hit rate of the full screen: of about 340,000 compounds, about 6,900 (2%) were called active. Cut-off read from the data, not from the text of the source: active = inhibition above about 30%; inactive = below that, where a call was filed. The entries are a selection whose mix differs from that of the whole data set. The source gives no active or inactive call for entries shown without one.

Sequence of UniProt P14416 (P14416 whole entry, looked up): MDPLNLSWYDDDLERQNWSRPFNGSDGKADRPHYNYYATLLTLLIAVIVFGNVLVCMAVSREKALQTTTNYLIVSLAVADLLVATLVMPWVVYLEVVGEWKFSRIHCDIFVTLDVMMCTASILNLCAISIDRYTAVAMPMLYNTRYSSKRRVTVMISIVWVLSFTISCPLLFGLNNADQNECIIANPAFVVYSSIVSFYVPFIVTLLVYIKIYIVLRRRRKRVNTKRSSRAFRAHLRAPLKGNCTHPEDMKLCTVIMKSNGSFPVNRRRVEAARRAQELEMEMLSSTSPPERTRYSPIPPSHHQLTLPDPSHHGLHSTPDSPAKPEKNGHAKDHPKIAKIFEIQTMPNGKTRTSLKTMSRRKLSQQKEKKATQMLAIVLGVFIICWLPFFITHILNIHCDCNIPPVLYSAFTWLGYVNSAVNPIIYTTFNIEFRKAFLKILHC

This assay has as its target D(2) dopamine receptor (Homo sapiens) (UniProt P14416). Put plainly: HTS Assay for Allosteric Antagonists of the Human D2 Dopamine Receptor: Primary Screen for Antagonists. Note: 0% is about no effect. The settings on record: HEK293 TREx D2 cells, calcium flux, dopamine EC80; at 10 µM; stronger effect = higher value. The essentials:
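Overnight-induced (tetracycline, 30 C) HEK293 T-REx cells carrying force-coupled D2 receive a no-wash calcium dye, then compound, then EC80 dopamine at 180 s; signals are read kinetically throughout.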
(Calcium flux is commonly read through the fluorescence of an indicator in the cells.)
Take `COc1ccccc1-c1noc(-c2ccc(NCCc3ccccc3)c([N+](=O)[O-])c2)n1`: the inhibition (in general, the drop in the measured response relative to a control, in per cent) was -1.74%.

Turning to `CCn1cc(C(=O)NCCc2ccc(OC)c(OC)c2)c(=O)c2cc(S(=O)(=O)N3CCc4ccccc4C3)ccc21`, the inhibition was -12.4%.

Turning to `COc1cccc(CNC(=O)CSc2ncc(S(=O)(=O)c3ccc(C)c(Cl)c3)c(=O)[nH]2)c1`, the inhibition stood at 13.1%.

For the compound `CC(C)(C)C(=O)OCc1cc(=O)n2nc(C3CCCCC3)sc2n1`, the inhibition is -5.98%.

Take `COc1ccc(-c2nc(CN3CCC(C(=O)NCCN(CC(C)C)CC(C)C)CC3)c(C)o2)cc1OC`: the inhibition is -14.9%.

Turning to `Cc1ccc(C)c(CN2C(=O)c3ccccc3Sc3ccc(C(=O)NC4CCCC4)cc32)c1`, the inhibition is -18.6%.

`Cc1ccc(-n2ncc(C(=O)N3CCc4ccccc4C3)c2C2CCN(C(=O)OC(C)(C)C)CC2)cc1C`: the inhibition amounted to 0.396%.

Take `COc1ccc(NC(=O)c2c(C)oc3ccc(O)c(CN4CCCC(C)C4)c23)cc1Cl` (stereo not given): the inhibition was 7.36%.

Consider `Cc1ccc(N2CCN(C(=O)CCc3c(C)nc4ncnn4c3C)CC2)c(C)c1`, for which the inhibition came out at 8.53%.

As for `Cc1cc(C)c(C#N)c(SCC(=O)Nc2ccccc2C#N)n1`, the inhibition is -0.114%.

In the case of `COC(=O)c1c(NC(=O)c2ccc(S(=O)(=O)N3CCCCC3)cc2)sc2c1CCN(C)C2`, the inhibition is -1.92%.

In the case of `COc1ccc(CCNC(=O)CCCn2c(=O)c3ccccc3n(CC(=O)Nc3c(C)cc(C)cc3C)c2=O)cc1OC`, the inhibition stood at 20.5%.

In the case of `CCc1ccc(NC(=O)CCS(=O)(=O)c2ccc3c(c2)oc(=O)n3C)cc1`, the inhibition is -4.18%.

In the case of `CCOC(=O)c1c(-c2ccc(C)cc2)csc1NC(=O)c1ccc(C(C)(C)C)cc1`, the inhibition stood at 10.4%.

On to `COC(=O)c1ccc(OC)c(Cn2c(=O)n(-c3cccc(Cl)c3)c(=O)c3c2c2cc(C)ccc2n3C)c1`, for which the inhibition worked out at 0.168%.

Regarding `Cc1ccc(-n2c(SCc3nc(-c4ccccc4C)no3)nnc2-c2ccncc2)cc1C`, the inhibition was 17.4%.

With `Cc1ccc(N2CC(c3nnc(Cc4ccc(F)cc4Cl)o3)CC2=O)cc1` (stereo not given), the inhibition was 11.7%.

In the case of `COC(=O)CNC(c1ccccc1)c1cc(Br)ccc1NC(=O)c1cc(OC)c(OC)c(OC)c1` (stereo not given), the inhibition was -7.87%.

On to `CC1=C(c2ccc(Cl)cc2)S(=O)(=O)N=C1N1CCN(c2cccc(C)c2)C(C)C1` (stereo not given), for which the inhibition was -11.1%.

Consider `CNC(=O)c1ccc(NC(=O)c2nsc3ccccc23)cc1`, for which the inhibition turned out to be 11%.

As to `CCOC(=O)c1ccc(NC(=O)Cn2nnc(-c3ccc(C(F)(F)F)cc3)n2)cc1`, the inhibition was 3.39%.

In the case of `Cc1ccc(-c2csc(=Nc3ccccc3)n2CCCO)cc1`, the inhibition was found to be 6.73%.

`CCN1Cc2cccc(C(=O)Nc3ccc(F)cc3)c2C1=O`: the inhibition was 10.1%.

For the compound `COc1ccc2c(c1)c(N1CCCC1=O)c(C(=O)Nc1ccc(Cl)cc1C)n2C`, the inhibition came out at 3.13%.

With `CCOC(=O)c1ccc(OCC2c3cc(OC)c(OC)cc3CCN2C(=O)Cc2ccc(OC)c(OC)c2)cc1` (stereo not given), the inhibition was 19%.

As to `COc1ccc(-c2[nH]c(-c3ccc(F)cc3)nc2SCC(=O)Nc2ccc(OC)c(OC)c2)cc1`, the inhibition was 7.23%.

On to `Fc1ccc(-n2ncc3c(Nc4ccc(Oc5ccc(Cl)cc5)cc4)ncnc32)cc1`, for which the inhibition is 12.8%.

As to `CC1=C(C(N)=O)C(c2ccc(C(C)C)cc2)n2nc(SCc3ccccc3F)nc2N1` (stereo not given), the inhibition is -25.7%.

With `CCn1cc2nc(SCc3cccc(C(F)(F)F)c3)n(CCc3ccccc3)c(=O)c2n1`, the inhibition was -0.419%.

For `COc1ccc(F)cc1C(=O)C1CCCN(Cc2ccc(Sc3nncn3C)o2)C1` (stereo not given), the inhibition was active: 30.9%.

With `COc1ccc(-c2cc(C)no2)cc1S(=O)(=O)Nc1cccc(C(F)(F)F)c1`, the inhibition turned out to be 14.1%.

In the case of `COc1ccc(CCNC(=O)Cn2c(C)c3cnn(-c4ccccc4)c(=O)c3c2C)cc1OC`, the inhibition stood at 10.5%.

On to `Cc1cc(-c2nc3ncccc3o2)ccc1NC(=O)COc1ccc(C(C)(C)C)cc1`, for which the inhibition stood at 13.6%.

As for `CCOc1ccc(Nc2c(S(=O)(=O)c3ccc(C)cc3)cnc3ccccc23)cc1`, the inhibition was -0.954%.

In the case of `Cc1c2cnn(-c3ccccc3)c(=O)c2c(C)n1CC(=O)NCc1ccc(Cl)cc1`, the inhibition was -6.49%.

As for `CCc1ccc(NC(=O)CSc2nnc(-c3nonc3NC(C)=O)n2-c2ccccc2)cc1`, the inhibition came to 5.67%.

Take `COc1ccccc1COC(=O)c1cccc(S(=O)(=O)N2CCCC2)c1`: the inhibition was active: 41.7%.

On to `Cc1cc2oc(C(=O)N(Cc3ccccc3)C3CCS(=O)(=O)C3)cc(=O)c2cc1C` (stereo not given), for which the inhibition was found to be 5.58%.

Turning to `CCOc1ccc(S(=O)(=O)n2nc(C)c(S(=O)(=O)N3CCCCCC3)c2C)cc1`, the inhibition is -1.57%.

In the case of `Cc1ccc(-n2ncc3c(NCCc4ccccc4)ncnc32)cc1`, the inhibition was -0.574%.

For the compound `Cc1ccccc1C(=O)Nc1ccccc1C(=O)OCc1cc(=O)n2nc(C3CC3)sc2n1`, the inhibition was 3.54%.

Take `Cc1ccc(NC(=O)CN2C(=O)C(c3ccccc3)=NC2(C)C)cc1C`: the inhibition is -15.1%.

For `COc1cccc(C(=O)Nc2ccc3c(c2)CCCN3C(=O)c2cccs2)c1OC`, the inhibition amounted to 6.83%.

Regarding `CCc1ccc(-n2c(=O)c3cccnc3n2CC(=O)N(CC)c2cccc(C)c2)cc1`, the inhibition was -3.67%.

`Cc1cc(NC(=O)c2ccc3c(c2)C(=O)N(C2CCCCC2)C3=O)no1`: the inhibition is active: 55.5%.

Take `COc1ccc2oc(-c3ccc(C)c(NC(=O)c4ccc(N5CCCCC5)c([N+](=O)[O-])c4)c3)nc2c1`: the inhibition is 0.421%.

With `O=C(NCc1nc(-c2ccc(Cl)cc2)no1)c1ccco1`, the inhibition was active: 34.1%.

Take `CC(C)(C)OC(=O)N1CCC(c2c(C(=O)NCCN3CCOCC3)cnn2-c2ccccc2)CC1`: the inhibition was -4.02%.

With `CCN(CC)C(=O)Cn1c(SCC(=O)Nc2ccc(C)c(C)c2)nc2ccccc21`, the inhibition is -1.5%.

Consider `COc1ccc(CNC(=O)CN2CCSc3ccccc32)c(OC)c1`, for which the inhibition is -5.31%.

Turning to `CCS(=O)(=O)N1CCC(C(=O)NCCCN2CCN(c3ccccc3F)CC2)CC1`, the inhibition is active: 86.4%.

In the case of `CCN(c1ccccc1)S(=O)(=O)c1cc(C(=O)Nc2ccc(Br)cc2)ccc1F`, the inhibition was 9.95%.

`O=C(Cn1c(=O)oc2ccccc21)NCc1ccc(Cl)cc1`: the inhibition was 10.1%.

Regarding `CCOC(=O)c1c(Nc2ccccc2)nnc(-c2ccccc2)c1-c1ccccc1`, the inhibition was -10.8%.

Turning to `CCCNC(=O)CS(=O)(=O)Cc1nc(-c2ccccc2C)oc1C`, the inhibition was active: 39.5%.

Consider `COc1cccc(Cn2c(SCc3ccc(C(=O)N4CCC(C)CC4)cc3)nc3ccncc32)c1`, for which the inhibition is 7.97%.

As for `CCC(Cc1ccccc1)NC(=O)c1csc2c1CCCCC2` (stereo not given), the inhibition was -4.66%.

For `Cc1cccc(C)c1OCC(O)CN1CCN(c2ccccc2)CC1` (stereo not given), the inhibition is active: 86.9%.

For the compound `COc1ccc2c(C)cc(SCC(=O)Nc3nsc(-c4ccc(C(C)(C)C)cc4)n3)nc2c1`, the inhibition is -10.9%.

For `COc1cc(NC(=O)CCCSc2nc(-c3ccco3)cc(C(F)(F)F)n2)cc(OC)c1OC`, the inhibition worked out at 9.88%.

For the compound `COc1cccc(Cn2c(=O)cc(C)c3c(C)nn(-c4ccc(C)cc4)c32)c1`, the inhibition is 2.96%.

Turning to `CCOc1ccc(NC(=O)CN2CCN(C3CCCCC3)C(=O)C2=O)cc1`, the inhibition was -16.6%.

Turning to `Cc1c(-c2cccc(NC(=O)Nc3ccccc3)c2)nc2ncccn12`, the inhibition was determined as 21.3%.

On to `Cc1ccc(S(=O)(=O)N(C)/N=C/c2ccc(C(=O)O)cc2)cc1`, for which the inhibition was active: 30.3%.

With `Cc1ccc(-c2cc(-c3coc4ccccc4c3=O)c3c(n2)-c2ccccc2OC3)cc1`, the inhibition was -9.26%.

Turning to `Cc1ccc(S(=O)(=O)N2CCc3cc(C(=O)NCCc4ccccc4)ccc32)cc1`, the inhibition amounted to 6.81%.

On to `Cc1cc(-c2ccc(S(=O)(=O)NCc3ccccc3Cl)s2)on1`, for which the inhibition stood at 1.3%.

As for `CCS(=O)(=O)N1CCC2(CC1)OC(=O)C(C)=C2C(=O)NCc1ccccc1C`, the inhibition is -0.374%.

For `CCCCn1c(=O)c2oc3ccccc3c2n(Cc2cccc(C)c2)c1=O`, the inhibition was 5.43%.

For the compound `COc1cc2oc(=O)c(CC(=O)NCc3ccc(OC)c(OC)c3)c(C)c2cc1Cl`, the inhibition was -7.65%.

`Cc1ccc(-c2noc(-c3ccc(N4CCCCC4C)c([N+](=O)[O-])c3)n2)cc1` (stereo not given): the inhibition was -13.9%.

As for `COc1ccc(C(C)(C)C)cc1NC(=O)COC(=O)CSCc1c(C)noc1C`, the inhibition was active: 36.2%.

Consider `Cc1c(C(=O)Nc2ccc(-c3nc4cc(Cl)ccc4o3)cc2)oc2ccccc12`, for which the inhibition amounted to 12.5%.

Regarding `Cc1ccccc1NC(=O)CSc1cn(CC(=O)N2CCCC2)c2ccccc12`, the inhibition was 5.9%.

`COc1ccc(N(C)C(=O)c2nc(-c3cccc(F)c3)n3c2CCCCC3)c(OC)c1`: the inhibition was determined as 14.9%.

Consider `Cc1c(Cl)cccc1NC(=O)c1cc2sccc2n1Cc1ccc(F)cc1`, for which the inhibition was determined as 12.6%.

Regarding `Cc1oc(-c2cccc(C(F)(F)F)c2)nc1CN1CCC[C@H]1CO`, the inhibition is active: 70.3%.

With `COc1cccc(CNC(=O)CCn2c(=O)c3cccn3c3cccnc32)c1OC`, the inhibition worked out at 1.07%.

Regarding `CCOC(=O)c1ccccc1NC(=O)c1ccc2c(Cl)c3c(nc2c1)CCC3`, the inhibition is 5.23%.

`CCOc1ccc(-c2nc(N)ncc2-c2ccccc2OC)c(O)c1`: the inhibition was active: 34.9%.

As to `CCOc1ccc(CNC(=O)C2CCN(S(=O)(=O)c3ccc4c(ccn4C)c3)CC2)cc1`, the inhibition worked out at 7.77%.

Regarding `Cc1nn(CC(=O)NCC(C)c2ccccc2)c(=O)c2cc3ccccc3n12` (stereo not given), the inhibition came to 0.365%.

For `CCOc1ccc(C(=O)Nc2onc3c2CCCC3)cc1`, the inhibition is -7.84%.

For the compound `O=C(COc1ccccc1)Nc1ccc2nc(SCC(=O)N3CCc4ccccc43)sc2c1`, the inhibition is 4.07%.

On to `N#Cc1ccccc1Cn1c(SCC(=O)Nc2ccc(F)cc2)nc2ccccc21`, for which the inhibition was found to be 8.52%.

`Clc1cccc(N2CCN(c3c4c(nc5nncn35)CCC4)CC2)c1`: the inhibition was 4.34%.

Consider `Cn1cnc(S(=O)(=O)N2CCC(C(=O)Nc3ccc(C#N)cc3)CC2)c1`, for which the inhibition amounted to 6.65%.

For the compound `COc1ccc2nc(N=NC3=C(O)CC(C)(C)CC3=O)sc2c1`, the inhibition was active: 33.7%.

Consider `CC(=O)c1ccc(NC(=O)c2nc(-c3ccccc3)n(-c3ccccc3Cl)n2)cc1`, for which the inhibition stood at 3.08%.

Regarding `CCc1nnc(SCc2ccc(F)cc2Cl)c2cc3sc(C)cc3n12`, the inhibition is -1.96%.

Regarding `COc1ccc(NC(=O)C2CCC(CNS(=O)(=O)c3ccc4c(c3)C(C)(C)C(=O)N4C)CC2)cc1` (stereo not given), the inhibition worked out at 17.2%.

Turning to `CCOc1ccc(Nc2ncnc3c2nc2n3CCCCC2)cc1`, the inhibition came to 13.5%.

Regarding `Cc1cccc(N2CCN(C(=O)Cn3ncc4c3-c3ccccc3OC4)CC2)c1C`, the inhibition came out at 6.16%.

In the case of `O=C(Nc1nnc(S(=O)(=O)N2CCCCCC2)s1)c1cccc(Br)c1`, the inhibition worked out at 1.08%.

Take `O=C(Nc1cccc(Cl)c1)c1cc(-c2ccccc2)on1`: the inhibition turned out to be 3.83%.
